# In PubChem BioAssay AID624417 (National Center for Advancing Translational Sciences (NCATS), 2012):
# “And” between values parts separate entries of the source, which are not always exact repeats. Identical values can stand only once. The whole screen tested about 410,000 compounds, of which about 6,400 (1.6%) were called active. Inconclusive results, whose numbers are uncertain, are shown with a selection of clear calls. Calls come from the whole dose curve; as a rule, active = well fitted inhibition curve with a large enough effect; inconclusive = small, poorly fitted or top-dose-only effect; inactive = no such curve, though single readings can be large or run the other way. Potencies beside an inconclusive call are fits to weak or partial responses and may not hold up.
# Target: Glucagon-like peptide 1 receptor (Homo sapiens) (UniProt P43220)
# Test: qHTS of GLP-1 Receptor Inverse Agonists (Inhibition Mode); note: nearly all actives have a fitted effect of over 55% in size
# Settings: HEK293 GLP-1R CRE-luciferase, luminescence, 24 h, GLP-1R form is constitutively active; activity change, negative = inhibition: at 38.3 µM (top of the series) unless noted
# Procedure, shortened: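 Stable HEK293 clone (constitutively active GLP-1R + cAMP-response luciferase); 200 cells/uL plated, 12 h pre-culture, compound 24 hr, 37 deg C/5% CO2; detection reagent 12 min RT; luminescence.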
# % is set by controls: 0 for no effect and ±100 for the full control effect; potency is the fitted concentration of half-maximal effect; tags give direction and shape of the fitted curve.
# Chain of UniProt P43220 (P43220 whole entry, looked up): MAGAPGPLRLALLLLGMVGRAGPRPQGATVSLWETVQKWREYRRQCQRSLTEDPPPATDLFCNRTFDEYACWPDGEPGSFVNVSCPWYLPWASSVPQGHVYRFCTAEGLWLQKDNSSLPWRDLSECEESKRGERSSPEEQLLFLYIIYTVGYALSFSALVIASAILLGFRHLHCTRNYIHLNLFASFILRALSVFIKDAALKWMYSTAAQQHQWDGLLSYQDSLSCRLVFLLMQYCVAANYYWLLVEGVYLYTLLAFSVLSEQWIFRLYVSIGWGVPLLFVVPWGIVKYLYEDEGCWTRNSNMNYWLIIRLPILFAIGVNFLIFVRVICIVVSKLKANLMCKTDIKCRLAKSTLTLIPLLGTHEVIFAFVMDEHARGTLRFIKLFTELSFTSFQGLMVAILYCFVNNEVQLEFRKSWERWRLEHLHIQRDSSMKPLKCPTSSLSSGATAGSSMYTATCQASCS
SMILES,Potency,"activity change, negative = inhibition"
CC(C)(C)n1nnnc1C(c1ccc(F)cc1)N1CCN(Cc2ccc3c(c2)OCO3)CC1 (stereo not given),"inconclusive: 10 µM [inhibitor, partial curve, poor fit]",
Cc1cccc(-c2nsc(SCC(=O)NCc3ccco3)n2)c1,"inconclusive: 25.1 µM [inhibitor, single point]",
COc1ccccc1C(=O)COC(=O)C1(C)CC1(Cl)Cl (stereo not given),active: 10 µM,
O=C(CN1C(=O)NC2(CCCC2)C1=O)OCCOc1cccc(Br)c1,"inconclusive: 12.6 µM [inhibitor, single point]",
Cc1cccc(C)c1NC(=O)C(c1ccccc1)N1CCN(c2ccc(C(F)(F)F)cn2)CC1 (stereo not given),"inconclusive: 12.6 µM [inhibitor, single point]",
COc1ccc(C(=O)CC(=O)C(=O)Nc2c(C)cccc2C)cc1,"inconclusive: 11.2 µM [inhibitor, single point]",
COc1ccccc1-c1cc(C(=O)NCCc2ccccc2)no1,"inconclusive: 14.1 µM [inhibitor, single point] and inconclusive: 7.94 µM [inhibitor, partial curve, poor fit]",
Nc1nc(=S)c2ncn(C3CCCC3)c2[nH]1,,inactive: -14.5%
CC(C)(C)c1nnc(NC(=O)Nc2ccc(Cl)cc2)s1,,inactive: -6.25%
Cc1ccc(NC(=O)COc2ccc(S(=O)(=O)N3CCOCC3)cc2)cc1,"inconclusive: 2.82 µM [inhibitor, partial curve, poor fit]",
Cc1ccsc1-c1cc2nc(NCCOc3ccccc3Cl)n(C)c(=O)c2s1,,inactive: 21.4%
O=c1[nH]c(C2CCN(S(=O)(=O)c3ccc(C(F)(F)F)cc3)CC2)nc2c1nnn2Cc1ccc(F)cc1,"inconclusive: 11.2 µM [inhibitor, partial curve, poor fit]",
Cc1ccccc1C(=O)Nc1cccc(N)c1,,inactive: -20.9%
Oc1ccc(Cl)cc1C=NN1CCCCCC1,"inconclusive: 10 µM [inhibitor, single point]",
COC(=O)c1sc(C(C)(C)C)cc1CSc1ccccc1,"inconclusive: 10 µM [inhibitor, partial curve, poor fit]",
COc1ccc(SC[C@H](Cc2ccccc2)N2CCN(CCc3ccccc3)CCC2=O)cc1,"inconclusive: 22.4 µM [inhibitor, single point]",
Cc1cccc(NC(=O)CSc2nc3ccccc3c3nc(CCc4c(C)n[nH]c4C)nn23)c1,"inconclusive: 28.2 µM [inhibitor, single point] and inconclusive: 14.1 µM [inhibitor, single point]",
CCOC(=O)c1c(C)[nH]c(C)c1S(=O)(=O)NCC1CCN(Cc2ccc(C)cc2)CC1,"inconclusive: 11.2 µM [inhibitor, partial curve, poor fit]",
O=C(c1cc(-c2cccc(O)c2)on1)N1CCN(C(c2ccccc2)c2ccccc2)CC1,"inconclusive: 5.01 µM [inhibitor, full curve, poor fit]",
Cc1ccc(C(=O)C(C)OC(=O)Cc2c[nH]c3ccccc23)cc1 (stereo not given),"inconclusive: 28.2 µM [inhibitor, single point]",
COc1ccc(CN2CCC(n3nccc3NC(=O)CCCc3ccccc3)CC2)cc1C,"inconclusive: 10 µM [inhibitor, partial curve, poor fit]",
CC(C)(C)c1ccc(C2=CSC3=NCCN23)cc1,"inconclusive: 1.26 µM [inhibitor, full curve]",

SMILES,Potency,"activity change, negative = inhibition"
O=C(Nc1cccc(/C=C/c2nc3ccccc3c(=O)[nH]2)c1)c1ccccc1Cl,"inconclusive: 7.94 µM [inhibitor, partial curve, poor fit]",
Cc1ccc(NC(=O)CCN2C(=O)C3CCCCC3C2=O)c(O)c1 (stereo not given),,inactive: 18%
Cc1cc2nn(-c3ccc(F)cc3)nc2cc1N,"inconclusive: 8.91 µM [inhibitor, single point]",
C=CCNC(=S)Nc1ccccc1,"inconclusive: 0.316 µM [inhibitor, full curve, poor fit]",
CCN(CC)CCNC(=O)Cn1c(-c2ccccn2)nc2ccccc21,,inactive: 3.76%
Cc1[nH]c2ccccc2c1C(=O)C(=O)NC1CC(=O)N(c2ccc(F)cc2)C1 (stereo not given),,inactive: -24.6%
COC(=O)Cn1ncc(N(C)Cc2ccccc2)c(Cl)c1=O,"inconclusive: 28.2 µM [inhibitor, single point]",
COc1ccccc1NC1=NCC(=O)N1Cc1ccccc1,,inactive: 6.18%
Cc1c(C(=O)NCC(c2ccco2)N(C)C)oc2c(Cl)cccc12 (stereo not given),"inconclusive: 28.2 µM [inhibitor, single point]",
CC1CCC(NC(=O)Cn2c3c(c(-c4ccccc4Cl)cc2=O)CCC3)CC1 (stereo not given),"inconclusive: 28.2 µM [inhibitor, single point]",
O=C(CCSc1nc2ccccc2o1)Nc1ccccc1,,inactive: -1.81%
CC1CCCCN1C(=O)Cn1cc(C#N)c2ccccc21 (stereo not given),"inconclusive: 8.91 µM [inhibitor, partial curve, poor fit]",
Cc1ccccc1OCc1nnc(SCc2cc(=O)c3ccc(C)c(C)c3[nH]2)n1C,,inactive: 8.73%
CCN(c1ccccc1)c1nc(Cl)nc2c1cnn2C,"inconclusive: 7.94 µM [inhibitor, partial curve, poor fit]",
CCOC(=O)c1n[nH]n2c1nc(=O)c1ccccc12,,inactive: -31.7%
CCC(=O)N(CCC1(C(C)C)CCOC(C)(C)C1)C(C)c1cccs1 (stereo not given),"inconclusive: 10 µM [inhibitor, single point]",
CCC/C(=C1/c2ccccc2C(=O)N1c1ccccc1)c1ccc2c(c1)OCO2,"inconclusive: 11.2 µM [inhibitor, partial curve, poor fit]",
COc1ccccc1-c1nc(S(=O)(=O)c2ccccc2)c(N2CCC(C)CC2)o1,"inconclusive: 22.4 µM [inhibitor, single point]",
CC(NC(=O)c1cccc(F)c1)C1CC2CCC1C2 (stereo not given),"inconclusive: 11.2 µM [inhibitor, partial curve, poor fit]",
O=C(NC1CCCN(Cc2ccc(Cl)cc2)C1)c1cccc(N2CCCC2=O)c1 (stereo not given),"inconclusive: 11.2 µM [inhibitor, single point]",
CC(C)c1nnc(NC(=O)C2CCCCC2)s1,,inactive: 10.6%
O=C(c1c[nH]c(C(=O)N2CCN(c3ccccc3F)CC2)c1)c1cccc(Cl)c1Cl,"inconclusive: 12.6 µM [inhibitor, partial curve, poor fit]",

SMILES,Potency,"activity change, negative = inhibition"
Cc1ccc(NC(=S)N2CCCCC2)cc1C,,inactive: 12.8%
C=CCn1c(CNc2ccc(C)cc2)nnc1SCC(=O)N/N=C/c1ccc(O)cc1,"inconclusive: 14.1 µM [inhibitor, partial curve, poor fit]",
COc1ccc(CN=C2NN=C(c3ccccc3)CS2)cc1,"inconclusive: 11.2 µM [inhibitor, partial curve, poor fit]",
CCSc1cc(N2CCCC2)nc(-c2cccc(C)c2)n1,"inconclusive: 28.2 µM [inhibitor, single point]",
COc1ccc(C(=O)NC(C)CCc2ccccc2)c(O)c1 (stereo not given),"inconclusive: 28.2 µM [inhibitor, single point]",
Cc1ccc(NC(=S)Nc2ccc3nc(-c4ccccn4)c(-c4ccccn4)nc3c2)cc1C,,inactive: -5.41%
COc1cccc(CNC23CC4CC(CC(C4)C2)C3)c1OCc1ccccc1,"inconclusive: 7.08 µM [inhibitor, partial curve, poor fit]",
CCOC(=O)c1ccc(OCC(=O)c2ccc(O)cc2O)cc1,"inconclusive: 12.6 µM [inhibitor, partial curve, poor fit]",
COc1ccccc1N1CCN(C(=O)c2ccc(-c3ccc(Cl)cc3)o2)CC1,"inconclusive: 2 µM [inhibitor, full curve, poor fit]",
O=C(OCCn1c(=S)sc2ccccc21)c1ccccc1,,inactive: -0.681%
CCOC(=O)c1cc2ccccc2n1C1CCN(CCc2ccccc2)CC1,"inconclusive: 12.6 µM [inhibitor, partial curve, poor fit]",
COc1ccc(O)c(/C=N/Nc2nc(Nc3ccccc3)nc(-n3nc(C)cc3C)n2)c1,"inconclusive: 0.562 µM [inhibitor, full curve, poor fit]",
Cc1cccc(Cc2c(C)nc3nc(SCC(=O)NCc4ccc(F)cc4)nn3c2C)c1,"inconclusive: 28.2 µM [inhibitor, single point]",
CC(C)(C)C(=O)Nc1ccc(Sc2ccc([N+](=O)[O-])cc2)cc1,"inconclusive: 12.6 µM [inhibitor, partial curve, poor fit]",
C[C@@]12CC(=O)NC1N(C(=O)c1ccccc1)C(c1ccccc1OC(=O)c1ccccc1)C2 (stereo not given in full),"inconclusive: 11.2 µM [inhibitor, single point]",
Cc1cc(C(=O)CN2C(=O)c3ccccc3S2(=O)=O)c(C)n1CC1CCCO1 (stereo not given),"inconclusive: 1.41 µM [inhibitor, full curve, poor fit]",
O=C(NC(NC(=S)Nc1ccc(Cl)cc1)C(Cl)(Cl)Cl)c1ccco1 (stereo not given),active: 3.55 µM,
COc1ccc(Cl)cc1N(C)C(=O)Cc1noc2ccc(C)cc12,,inactive: 16.2%
Cc1cccc(CCNC(=O)c2ccc3c(c2)nc2n3CCCCC2)c1,"inconclusive: 10 µM [inhibitor, single point]",
CCOC(=O)/C(=C\c1ccc(Cl)cc1)c1nc2sc(C)c(C)c2c(=O)[nH]1,"inconclusive: 10 µM [inhibitor, partial curve, poor fit]",
O=C(NCc1cccc(Cl)c1)c1cccc(OC2CCN(C(=O)C3CC3)CC2)c1,"inconclusive: 10 µM [inhibitor, partial curve]",
